# Test results as given in article PMC4336329 (PLoS ONE, 2015).
# Out of some 310,000 compounds screened, about 14,000 (4.5%) showed an effect of 50% or more. Effects have a minus sign here. This is one part of the list.
# Biological target: human ether-à-go-go-related gene (hERG) potassium channel (human, UniProt Q12809)
# Assay: primary screen, population patch clamp on CHO cells stably expressing hERG
# 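Note: peak tail current of the secondary pulse compared with the same well before compound.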
# Sequence of human ether-à-go-go-related gene (hERG) potassium channel (Q12809 whole entry, looked up): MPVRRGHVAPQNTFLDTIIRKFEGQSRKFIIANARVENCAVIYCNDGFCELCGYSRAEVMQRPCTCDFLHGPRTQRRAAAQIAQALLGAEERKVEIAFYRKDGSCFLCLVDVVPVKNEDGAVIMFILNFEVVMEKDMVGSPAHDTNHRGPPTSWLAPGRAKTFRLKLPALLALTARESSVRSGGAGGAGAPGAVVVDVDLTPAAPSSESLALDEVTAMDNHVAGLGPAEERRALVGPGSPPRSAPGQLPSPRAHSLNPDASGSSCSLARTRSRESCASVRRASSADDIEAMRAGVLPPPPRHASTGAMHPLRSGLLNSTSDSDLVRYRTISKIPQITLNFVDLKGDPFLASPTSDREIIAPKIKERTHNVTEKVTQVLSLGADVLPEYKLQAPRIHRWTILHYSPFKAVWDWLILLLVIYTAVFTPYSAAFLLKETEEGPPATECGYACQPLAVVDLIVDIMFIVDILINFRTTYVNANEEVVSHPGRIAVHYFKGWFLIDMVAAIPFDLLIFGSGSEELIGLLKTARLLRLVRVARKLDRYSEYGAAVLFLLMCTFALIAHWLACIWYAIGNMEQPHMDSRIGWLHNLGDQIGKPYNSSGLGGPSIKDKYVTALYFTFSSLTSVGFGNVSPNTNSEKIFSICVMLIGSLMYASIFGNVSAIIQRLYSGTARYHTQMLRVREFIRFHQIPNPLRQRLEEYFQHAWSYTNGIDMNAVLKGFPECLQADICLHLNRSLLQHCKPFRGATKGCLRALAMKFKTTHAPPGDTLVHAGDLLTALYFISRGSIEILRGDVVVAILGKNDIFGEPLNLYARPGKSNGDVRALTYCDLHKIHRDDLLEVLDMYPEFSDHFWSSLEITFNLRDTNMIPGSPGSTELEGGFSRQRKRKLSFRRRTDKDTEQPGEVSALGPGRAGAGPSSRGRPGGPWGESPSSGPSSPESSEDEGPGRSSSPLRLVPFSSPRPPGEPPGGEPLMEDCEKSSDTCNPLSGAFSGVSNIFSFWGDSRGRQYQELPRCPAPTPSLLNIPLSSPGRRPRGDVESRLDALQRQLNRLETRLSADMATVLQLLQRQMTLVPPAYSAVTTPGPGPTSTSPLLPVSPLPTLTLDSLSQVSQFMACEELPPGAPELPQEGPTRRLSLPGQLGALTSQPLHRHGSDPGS
row,Structure (SMILES),"hERG current change (%, negative = inhibition) at 10uM"
1,COc1ccc(Br)cc1C(=O)Nc1nnn(C)n1,3.43%
2,Cc1ccc(C)c(OCC(=O)Nc2nc3ccc([N+](=O)[O-])cc3s2)c1C,2.02%
3,Cc1c(N2C(=O)SC(CC(=O)O)C2=O)c(=O)n(-c2ccccc2)n1C (centres unmarked),3.72%
4,CC(C)OC(=O)c1ccccc1C(=O)c1ccc(N)c([N+](=O)[O-])c1,6.68%
5,CCCCN(C)CCCNC(=O)CCn1nc(-c2ccccc2)ccc1=O,-52.9%
6,CC1CCN(C(=O)c2[nH]cnc2C(=O)Nc2nccs2)CC1,5.22%
7,Cc1onc(-c2ccccc2)c1C(=O)OCC(=O)NC(=O)c1ccccc1,-31.1%
8,C=CCn1c(=O)c2c(nc3n2CCCN3CCc2ccc(OC)c(OC)c2)n(C)c1=O,-79.6%
9,COc1ccc(-c2cn(-c3ccc(C)cc3C)c(=S)[nH]2)cc1OC,0.968%
10,Cc1cc2c(s1)c1cnn(CC(=O)NCCc3ccccc3)c(=O)c1n2C,-9.56%
11,O=C(N/N=C/c1cc([N+](=O)[O-])ccc1O)C1C2CCCCC21 (centres unmarked),3.28%
12,Cc1ccc(C)c(N=Nc2ccc(O)c3ncccc23)c1,21.3%
13,O=c1[nH]c(=O)n(Cc2ccco2)c(O)c1C=NCc1cccs1,-15.3%
14,CCN(CC(=O)NCc1ccc(F)cc1)C(=O)/C=C/c1ccc(S(=O)(=O)N(CC)CC)cc1,-19.1%
15,COc1cccc(Cn2nnc(C(=O)NCc3ccc(F)cc3)c2N)c1,-2.25%
16,Cc1ccccc1C(=O)Nc1ccc2nc3n(c(=O)c2c1)CCC3,-9.1%
17,O=C(COC(=O)CCSc1ccccc1)NCc1ccccc1,10.2%
18,Cc1cccc(C(=O)NC2CCN(S(=O)(=O)c3ccccc3F)CC2)c1,10%
19,CC1Oc2ccccc2N(Cc2ccccc2Cl)C1=O (centres unmarked),-0.33%
20,CS(=O)(=O)c1ccccc1-c1nc(-c2cc(C(F)(F)F)cc(C(F)(F)F)c2)no1,4.06%
21,O=C(NCCc1ccco1)C(=O)NCC1OCCCN1S(=O)(=O)c1cc(F)ccc1F (centres unmarked),-8.36%
22,O=C(Cn1ncc2c1-c1ccccc1OC2)Nc1ccc(Cl)cn1,-17.1%

row,Structure (SMILES),"hERG current change (%, negative = inhibition) at 10uM"
1,COc1ccc(S(=O)(=O)N(C)c2ccc(C(=O)N3CCCC3)cc2)cc1,13.4%
2,Cc1nnc(SCC(=O)NC(C)(C)C)n1NCc1ccc(N(C)C)cc1,19.1%
3,CCOc1ccc2nc(SCC(=O)NC3CC3)sc2c1,-0.114%
4,O=C1/C(=C/c2ccc(F)cc2)CCC1C1CCCC1 (centres unmarked),3.05%
5,Cc1ccc(S(=O)(=O)C(CCC(=O)c2ccc(Cl)cc2)C(N)=O)cc1 (centres unmarked),-28.9%
6,Cc1ccc(SCc2cc(=O)[nH]c(Nc3nc(C)c4ccccc4n3)n2)cc1,-5.24%
7,Cc1ncoc1C(=O)Nc1ccc2c(c1)OCCO2,-10.1%
8,Cn1cc(CN2CCC(n3nccc3NC(=O)CCCc3ccccc3)CC2)cn1,5.95%
9,Cc1cc(C)cc(N)c1,5.8%
10,CC1(C)C(=O)Nc2ccccc2N1C(=O)COC(=O)C12CC3CC(CC(O)(C3)C1)C2,14.1%
11,CCOc1ccc(-n2c(O)c(N=Nc3c(C)n(C)n(-c4ccccc4)c3=O)c(=O)[nH]c2=O)cc1,9.91%
12,CCOC(=O)CCSc1nc(C)cc(C(F)(F)F)c1C#N,2.56%
13,Cc1ccc2onc(CC(=O)O)c2c1,20.7%
14,O=C(NNc1c2ccccc2nc2ccccc12)c1ccccc1O,15.2%
15,Cc1[nH]c2c(C(F)(F)F)cccc2c1CCN.Cl,-1.49%
16,CC(=O)c1cccc(NC(=O)/C(=C\c2cccnc2)NC(=O)c2ccco2)c1,-10.6%
17,Cc1ccc2nc(Nc3nc(CSc4nc5ccccc5s4)cc(=O)[nH]3)nc(C)c2c1,6.96%
18,CC(=O)CCSc1ncnc2sc(-c3ccccc3)cc12,15.5%
19,CC(C)n1cc(/C=C2/SC(=O)N(CC(=O)Nc3ccc4c(c3)OCO4)C2=O)c2ccccc21,-5.84%
20,Cc1ccc(N2C(=O)c3ccc(C(=O)N4CCN(Cc5ccccc5)CC4)cc3C2=O)cc1,-19%
21,O=C(CC(c1ccccc1)c1ccccc1)NCc1cccnc1,-12.7%
22,Cc1ccsc1C(=O)N1CCCC(CCC(=O)NCc2ccc(F)c(F)c2)C1 (centres unmarked),-15.3%
